Source: PubChem BioAssay AID2147 (National Center for Advancing Translational Sciences (NCATS), 2009)
Where “and” joins values, the source holds several entries; their conditions need not be identical. Equal entries are not always repeated. Out of some 230,000 compounds screened, about 3,600 (1.6%) were called active. The inconclusive results got no clear call from the source; some entries with a clear call stand among them for comparison. Calls come from the whole dose curve; as a rule, active = well fitted inhibition curve with a large enough effect (not every such curve was filed as active); inconclusive = small, poorly fitted or top-dose-only effect, or another doubt; inactive = no such curve, though single readings can be large or run the other way. A potency beside an inconclusive call is a rough fit, not a confirmed value.

These molecules were tested against Lysine-specific demethylase 4E (Homo sapiens) (UniProt B2RXH2) (assay: qHTS Assay for Inhibitors of Human Jumonji Domain Containing 2E (JMJD2E)). Conditions: JMJD2E catalytic domain, FDH-coupled NADH fluorescence (FDH is formaldehyde dehydrogenase); series mostly up to 57.1 µM.
Chain of UniProt B2RXH2 (B2RXH2 whole entry, looked up, the tested form may be a part): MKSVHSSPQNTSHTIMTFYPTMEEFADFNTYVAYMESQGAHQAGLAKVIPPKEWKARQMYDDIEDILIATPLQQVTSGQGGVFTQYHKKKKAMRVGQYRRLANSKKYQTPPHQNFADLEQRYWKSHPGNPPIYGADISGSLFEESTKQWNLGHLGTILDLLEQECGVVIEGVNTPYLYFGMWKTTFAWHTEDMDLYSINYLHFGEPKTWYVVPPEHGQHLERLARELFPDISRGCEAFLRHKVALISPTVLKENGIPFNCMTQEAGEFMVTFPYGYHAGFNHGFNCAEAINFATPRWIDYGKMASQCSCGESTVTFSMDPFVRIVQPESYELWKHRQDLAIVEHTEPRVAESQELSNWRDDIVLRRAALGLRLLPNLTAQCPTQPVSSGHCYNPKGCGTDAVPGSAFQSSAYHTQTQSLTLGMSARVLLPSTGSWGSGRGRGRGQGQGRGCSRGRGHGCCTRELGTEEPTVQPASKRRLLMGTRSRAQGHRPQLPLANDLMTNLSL
Note: nearly all actives have a fitted effect of over 50% in size.
Potency is the fitted concentration of half-maximal effect; tags give direction and shape of the fitted curve.

| Compound | Potency |
| --- | --- |
| CN(CC(=O)Nc1ccccc1Cl)C(=O)c1cc(=O)[nH]c2ccccc12 | inconclusive: 25.1 µM [inhibitor, partial curve] |
| CN(C)S(=O)(=O)c1cccc(NC(=O)COC(=O)c2cc(-c3cccc(Br)c3)nc3ccccc23)c1 | inconclusive: 22.4 µM [inhibitor, partial curve] |
| CCOc1ccc(/C=N/OCC(=O)Nc2ccc(OCc3ccccc3)cc2)cc1OC | inconclusive: 39.8 µM [inhibitor, single point] |
| O=C(Nc1ccc(-c2cnco2)cc1)c1ccc(F)cc1F | inconclusive: 39.8 µM [inhibitor, single point] |
| CCOc1ccc(-c2nnc(-c3ccccc3)o2)cc1 | inconclusive: 31.6 µM [inhibitor, partial curve] |
| Nc1nc(CN2CCCCCC2)nc(Nc2ccc(F)cc2)n1 | inconclusive: 12.6 µM [inhibitor, partial curve] |
| O=C(COc1ccc(Br)cc1Br)NC1CCCC1 | inactive |
| NNS(=O)(=O)c1ccc(N2CCCC2=O)c([N+](=O)[O-])c1 | inconclusive: 39.8 µM [inhibitor, single point] |
| COc1ccc(CC(=O)Nc2ccc(S(=O)(=O)Nc3cc(C)on3)cc2)cc1 | inconclusive: 39.8 µM [inhibitor, single point] |
| COc1cccc(/C=C2\C(=O)C(=O)c3ccccc32)c1 | inactive |
| C/C(=N\NC(=S)NCc1ccccc1)c1cccc(Br)c1 | inconclusive: 5.01 µM [inhibitor, single point] |
| COC(=O)[C@@H]1C[C@@]2(O)[C@@H](O)[C@@H](O)[C@@H](O)C[C@H]2N1CC(c1ccccc1)c1ccccc1 | inconclusive: 39.8 µM [inhibitor, single point] |
| O=C(O)c1ccc2cc[nH]c2c1 | inconclusive: 31.6 µM [inhibitor, partial curve] |
| CCN1CCN(CC(=O)c2cc(Cl)ccc2Cl)CC1 | inactive |
| CC(Cc1c[nH]c2ccccc12)C(=O)O (configuration not stated) | inconclusive: 39.8 µM [inhibitor, single point] |
| NC(=O)N1c2ccccc2CC(=O)c2ccccc21 | inconclusive: 14.1 µM [inhibitor, partial curve] and inconclusive: 39.8 µM [inhibitor, single point] |
| Cc1c2cc(O)c(=O)cc-2oc2cc(O)c(O)cc12 | inconclusive: 15.8 µM [inhibitor, partial curve] and inconclusive: 14.1 µM [inhibitor, partial curve, poor fit] |
